The campaign covered roughly 45,000 compounds. About 200 (0.44%) were called active. Not shown: some 7% with an inconclusive outcome. The call rests on the fitted dose curve; in most records, active means well fitted activation curve with a large enough effect; inconclusive means small, poorly fitted or top-dose-only effect; inactive means no such curve, though single readings can be large or run the other way. The list shows a part of the results.
Potency means the concentration at half of the fitted maximal effect.

The nature of the test: qHTS of TDP-43 Inhibitors: NCGC Sytravon Library Screen. Further: nearly all actives have a fitted effect of over 55% in size. On growth rescue (activation): 0% is about no effect. As to conditions: yeast TDP-43 toxicity rescue, BacTiter-Glo growth, 24 h; series mostly up to 46.1 µM; growth rescue (activation): at the top concentration. The method, boiled down: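 TDP-43-expressing yeast, pregrown in raffinose, seeded at OD600 0.02 in galactose medium with compound for 24 hr at 30 deg C. Growth read by BacTiter-Glo luminescence, so rescue of toxicity appears as activation.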
For orientation: In qHTS, concentration-response curves come from the screen itself.
On to `CC(=O)c1cccc(N(C(=O)CNC(=O)c2cccs2)C(C(=O)NCC2CCCO2)c2ccccc2)c1` (stereo unspecified), for which the “growth rescue (activation)” value was inactive: 12.1%.

Consider `COc1cccc(-c2nnc(NC(=O)c3cccs3)s2)c1`, for which the “growth rescue (activation)” value was inactive: 11.2%.

Turning to `CCCN(CCC)C(=O)c1cc2c(=O)[nH]c3ccc(C)cc3c2s1`, the “growth rescue (activation)” value was inactive: 35.4%.

On to `CC(C)N1CCC1(C)C(=O)Nc1cccc2ccccc12` (stereo unspecified), for which the “growth rescue (activation)” value is inactive: 10.3%.

As for `CCOC(=O)C1CCN(CC(C)(C)NS(=O)(=O)c2ccccc2)CC1`, the “growth rescue (activation)” value is inactive: 3.32%.

Consider `CCC(CC)NC(=O)CO/N=C/c1ccc(Cl)cc1Cl`, for which the “growth rescue (activation)” value is inactive: 10.8%.

With `Cn1cc(CN2CCC(n3nccc3NC(=O)Cc3ccccc3)CC2)cn1`, the “growth rescue (activation)” value was inactive: 0.757%.

`CNS(=O)(=O)c1cccc(C(=O)OCC(=O)Nc2ccc(OC)cc2[N+](=O)[O-])c1`: the “growth rescue (activation)” value is inactive: 22.7%.

With `CC12CCC(C(=O)N(CCCCN3CCN(Cc4ccccc4)CC3)C1=O)C2(C)C` (stereo unspecified), the “growth rescue (activation)” value was inactive: -15.8%.

`COc1ccc(C(=O)NC(=S)N2CCN(c3ccccc3OC)CC2)cc1`: the “growth rescue (activation)” value is inactive: 8.06%.

In the case of `O=c1c2ccccc2c(-c2ccccc2)nn1-c1ccccn1`, the “growth rescue (activation)” value is inactive: 3.73%.

For the compound `Cc1ccc(NC(=O)COC(=O)Cn2nc(-c3ccc(F)cc3)oc2=O)cc1C`, the “growth rescue (activation)” value is inactive: 4.33%.

For `CC(=O)Nc1c(C)ccc(CNC(=O)COc2ccc(F)cc2)c1C`, the “growth rescue (activation)” value was inactive: 2.26%.

`COc1ccc(NC(=O)CSc2nc(SC)ns2)cc1`: the “growth rescue (activation)” value was inactive: 29.3%.

As to `COc1ccc(SCC(=O)Nc2ccccc2Cl)cc1`, the “growth rescue (activation)” value is inactive: 0.623%.

With `COc1ccc(Cc2[nH]n3c(=O)c(Cl)c(C)nc3c2-c2ccccc2)cc1`, the “growth rescue (activation)” value was inactive: 10%.

Consider `O=C1N(c2ccc(Cl)cc2)C(c2ccc(Cl)cc2)N2CCCN12` (stereo unspecified), for which the “growth rescue (activation)” value was inactive: 9.11%.

Turning to `Cc1ccc(S(=O)(=O)NCc2cccnc2)cc1C(=O)N1CCCC1`, the “growth rescue (activation)” value is inactive: -5.61%.

`C=CCn1c(SCC(=O)c2[nH]c(C)c(C(=O)OCC)c2C)nc2scc(-c3ccccc3)c2c1=O`: the “growth rescue (activation)” value is inactive: -16.6%.

For `CCOc1ccc(CN(C)Cc2cc(=O)oc3c(C)c(C)ccc23)cc1OC`, the “growth rescue (activation)” value is inactive: -1.58%.

With `CC(C)/C(=N/Nc1ccccc1[N+](=O)[O-])c1ccccc1`, the “growth rescue (activation)” value was inactive: 7.59%.

For `Cc1cccc(NC(=O)/C(C#N)=C\c2cn(CC(=O)O)c3ccccc23)c1`, the “growth rescue (activation)” value is inactive: 13%.

With `COC(=O)[C@@H](NC(=O)CCc1nnc(-c2ccsc2)o1)C(C)C`, the “growth rescue (activation)” value is inactive: 0.443%.

Turning to `Cc1ccc(S(=O)(=O)N2CCC(N3CCN(C)CC3)CC2)cc1Cl`, the “growth rescue (activation)” value was inactive: -9.62%.

`CCN(CC)CC(O)Cn1c(C)c(-c2ccccc2)c2cc([N+](=O)[O-])ccc21` (stereo unspecified): the “growth rescue (activation)” value was inactive: 18.4%.

In the case of `CN1/C(=C\C(=O)CSc2nnc(N)s2)C(C)(C)c2ccccc21`, the “growth rescue (activation)” value is inactive: 11.7%.

Take `COc1ccccc1NS(=O)(=O)c1cc(NC(=O)C2CCCO2)ccc1C` (stereo unspecified): the “growth rescue (activation)” value is inactive: -0.453%.

As to `O=[N+]([O-])c1cnn(-c2nc(-c3cccs3)cc(C(F)(F)F)n2)c1`, the “growth rescue (activation)” value is inactive: 2.6%.

As for `COc1ccc(NC(=O)c2cccc3ccccc23)cc1`, the “growth rescue (activation)” value is inactive: -4.68%.

With `O=[N+]([O-])c1ccccc1/C=N/NC1=NS(=O)(=O)c2ccccc21`, the “growth rescue (activation)” value is inactive: -6.54%.

Take `CS(=O)(=O)N1CCN(c2ccc(C(=O)NC34CC5CC(CC(C5)C3)C4)cc2[N+](=O)[O-])CC1`: the “growth rescue (activation)” value was inactive: 12.4%.

Consider `CCc1sc(C(=O)NNC(=O)c2cncc(Br)c2)cc1C`, for which the “growth rescue (activation)” value is inactive: 21.2%.

In the case of `Cc1cccc(NC(=O)CN2C(=O)S/C(=C\c3ccc(-c4cccc(C(=O)O)c4C)o3)C2=O)c1`, the “growth rescue (activation)” value is inactive: -5.96%.

As for `COc1ccc(C(=O)COC(=O)CCN2C(=O)C3C4C=CC(C5CC45)C3C2=O)cc1` (stereo unspecified), the “growth rescue (activation)” value was inactive: -15.6%.

Take `Cc1ccc(NC(=O)C2C3C=CC4(O3)C2C(=O)N(CCCN2CCOCC2)C4C(=O)NC2CCCCC2)cc1Cl` (stereo unspecified): the “growth rescue (activation)” value was inactive: 2.73%.

For the compound `COc1ccc(NC(=O)CC2C(=O)N(C)C(=S)N2Cc2ccco2)cc1` (stereo unspecified), the “growth rescue (activation)” value is inactive: 5.93%.

For the compound `Nc1c(C(=O)Nc2ccc(Cl)c(C(F)(F)F)c2)sc2nc(-c3ccncc3)ccc12`, the “growth rescue (activation)” value was inactive: 8.45%.

Consider `CC(=O)Nc1cccc(C(=O)NC(C)c2ccc(-n3ccnc3)cc2)c1` (stereo unspecified), for which the “growth rescue (activation)” value is inactive: -4.12%.

In the case of `CCN(CC(=O)Nc1ccc(Br)cc1)CC(=O)Nc1cc(C)on1`, the “growth rescue (activation)” value was inactive: 12.2%.

For the compound `CC(C)CCn1c2ccccc2c2cc(CC(N)=O)ccc21`, the “growth rescue (activation)” value is inactive: -22%.

Turning to `COc1ccc(N(CC(=O)N2CCCCCC2)S(=O)(=O)c2ccc(OC)c(OC)c2)cc1`, the “growth rescue (activation)” value is inactive: 1.89%.

For `Cc1cc2c(SCC(=O)NC3CCCC3)ncnc2s1`, the “growth rescue (activation)” value is inactive: -0.775%.

In the case of `COCc1ccc(C(=O)N2CCCC(N(C)Cc3ccccc3)C2)s1` (stereo unspecified), the “growth rescue (activation)” value was inactive: -0.0032%.

In the case of `CCOc1ccccc1NC(=S)N1CCC(NC(=O)C(C)(C)C)CC1`, the “growth rescue (activation)” value was inactive: 6.61%.

For `CCC(C)[C@H](NC(=O)OC(C)(C)C)c1nnc(SCc2c(C)[nH]c(=O)[nH]c2=O)o1` (stereo partly specified), the “growth rescue (activation)” value is inactive: -26.1%.

With `COc1ccc(C(=O)Cn2cnc3ccccc3c2=O)cc1OC`, the “growth rescue (activation)” value is inactive: -40%.

As to `CC(Oc1ccc(F)cc1)C(=O)NN` (stereo unspecified), the “growth rescue (activation)” value is inactive: 17.5%.

Consider `Cc1ccc(OC(C)C(=O)Nc2ccccc2C(=O)NCc2cccnc2)cc1C` (stereo unspecified), for which the “growth rescue (activation)” value was inactive: 14.6%.

As to `CN(C)c1ccc(-c2n[nH]c(=S)n2-c2ccccc2)cc1`, the “growth rescue (activation)” value is inactive: 10.5%.

Take `COc1ccc(CCNC(=O)CC(=O)NCCc2ccc(OC)cc2)cc1`: the “growth rescue (activation)” value was inactive: 3.67%.

For `CC(=O)c1ccc(NC(=O)CC(NCCC2=CCCCC2)C(=O)O)cc1` (stereo unspecified), the “growth rescue (activation)” value is inactive: -4.29%.

`CCC(C(=O)NCC1CCCO1)N(C(=O)c1snc(C(N)=O)c1N)c1ccc(Cl)cc1` (stereo unspecified): the “growth rescue (activation)” value was inactive: 8.56%.

For the compound `Cc1ccc(S(=O)(=O)Oc2ccccc2N2C(=O)C3C4CCC(C4)C3C2=O)cc1` (stereo unspecified), the “growth rescue (activation)” value is inactive: 22.9%.

Take `COC(=O)c1ccc(N2CCN(S(=O)(=O)c3c(C)cc(C)cc3C)CC2)c([N+](=O)[O-])c1`: the “growth rescue (activation)” value is inactive: 21.8%.

`O=C(Cn1nc(C(=O)O)c2ccccc2c1=O)c1c[nH]c2ccccc12`: the “growth rescue (activation)” value is inactive: -1.01%.

On to `C=CCNC(=S)NN=C1CCC(c2ccccc2)CC1` (stereo unspecified), for which the “growth rescue (activation)” value is inactive: 15.6%.

For the compound `CN(CC(=O)N1CCN(c2ccccc2)CC1)C1CCCc2ccccc21` (stereo unspecified), the “growth rescue (activation)” value is inactive: 10.1%.

Take `CC(=O)c1ccc(N2CCN(CN3C(=O)CC4(CCCC4)C3=O)CC2)c(F)c1`: the “growth rescue (activation)” value was inactive: 7%.

For `CCc1nc(Nc2cccc(F)c2)c2oc3ccccc3c2n1`, the “growth rescue (activation)” value is inactive: 12.8%.

As to `CN(C)C(CNC(=O)c1ccc(-c2ccccc2)cc1)c1ccccc1` (stereo unspecified), the “growth rescue (activation)” value is inactive: 9.56%.

Consider `COc1ccc(OCC(O)Cn2c(Nc3ccccc3)nc3c2c(=O)n(C)c(=O)n3C)cc1` (stereo unspecified), for which the “growth rescue (activation)” value was inactive: 25.1%.

Turning to `COc1cccc(CN2CCNC(=O)C2CC(=O)NCCCC2CCCC2)c1OC` (stereo unspecified), the “growth rescue (activation)” value is inactive: 0.729%.

`Fc1ccc(C(c2nnnn2Cc2cccs2)N2CCN(C3CCCC3)CC2)cc1` (stereo unspecified): the “growth rescue (activation)” value is inactive: -24.1%.

As to `COc1cccc(C(O)c2nc(-c3ccccc3C)cs2)c1` (stereo unspecified), the Potency is active: 11.2 µM.

Regarding `COc1ccc(S(=O)(=O)NC2CC2)cc1-n1cnnn1`, the “growth rescue (activation)” value is inactive: -2.55%.

For the compound `COc1ccccc1-c1cc(C(=O)NCCCN2CCOCC2)no1`, the “growth rescue (activation)” value is inactive: 1.64%.

For the origin of these results see PubChem BioAssay AID1347073 (National Center for Advancing Translational Sciences (NCATS), 2019).
